Data taken from the supplement of paper PMC11417369.
± gives the standard deviation of the averaged measurements. The list shows a part of the results.

The sequences below were run on PfAP2-EXP AP2 domain (GST-tagged) (assay: gcPBM binding intensity (ln(normalized median fluorescence intensity)); higher = stronger DNA binding).
Summary of the method: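 Binding intensity is the highest Masliner-normalised natural-log median intensity over replicate spots in either probe orientation. To obtain it, GST-tagged P. falciparum DNA-binding domains made in E. coli were incubated for 1 h on an Agilent 4 × 180k array of primer-extended double-stranded 36-bp intergenic genomic probes plus negative controls. Detection used Alexa488 anti-GST antibody with scanning at 488 nm.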

Sequence	gcPBM binding intensity (ln)
TCTATACCAGAAAAGGGTACATATTTTGGATTGAAC [XGTACX_site8402]	8.53 ± 0.36
ATTATGCACCAACACACACACACACTCCTAAAAAAT [CACACA_site8822]	9.56 ± 0.61
ATCACAAAATGGAATGTTCTATGATATATATGTATA [XGTACX_negctrl_site460]	8.27 ± 0.44
TGTAAATATTTATTCACACATAATCAATTAGAAAAA [CACACA_site5944]	8.35 ± 0.56
AATACAGATAATACAACACACAAGTAATATAAACCT [CACACA_site5900]	8.8 ± 0.42
TATATATATTTTTATGCACACACAAAGAAAATTTTC [CACACA_site8931]	8.75 ± 0.18
TACTTACTTACTTACTCACACACATATACAAAGAAA [CACACA_site3348]	8.85 ± 0.11
AAAAAAAAAAAAAACACACACACAATAGTATATAAA [CACACA_site957]	8.49 ± 0.45
TTGTTACTGTTTTGGTGTACAAAAAAAAAAAATATA [XGTACX_site5762]	8.48 ± 0.31
AATATATAAATCTATTGTACATAAAGAGGATAATAA [XGTACX_site1022]	8.78 ± 0.54
TATAAATACAGATACACACACACACCGATATATATA [CACACA_site5271]	8.92 ± 0.48
GATGATTATATATATACGCACACTTTTTTTTTTTTT [CACACA_site2652]	8.69 ± 0.45
ATTAAAAACGGGTGTACACATATATAAATATATATA [CACACA_site4539]	8.88 ± 0.28
AGTAGCATATTCTATTGTACATATATATATATATAT [XGTACX_site2980]	10.2 ± 0.56
TACAAAATAACTAGCACACATATGTATAAACCTATA [CACACA_site3718]	8.69 ± 0.54
TGTATAAAGATATATACACACATATTTATTTATATA [CACACA_site6493]	8.21 ± 0.39
ATATGTATATATGTATGTACGTACAAATTGTTGTAA [XGTACX_site8832]	9.21 ± 0.39
TTAATACATTAAATATGTACTTATATATCTCAACTA [XGTACX_site3997]	8.17 ± 0.26
ACCTGAAGAGTCAAACGTACAAATATTATAAAATGA [XGTACX_site3188]	8.55 ± 0.47
GTTATATTTTTTTTTTGTACATAATATTGTATTGAC [XGTACX_site6338]	8.93 ± 0.42
TTTTTTTCTTTTCAAACACACAATTGGTATATATTA [CACACA_site3320]	8.67 ± 0.48
CATAGGATTATACTTTTGGAATATTATTAAATATGT [XGTACX_negctrl_site75]	8.35 ± 0.3
TTTATTTTTTAATGTTGTACAATGTTGTTTAATCAA [XGTACX_site6489]	8.61 ± 0.42

Sequence	gcPBM binding intensity (ln)
TCATCCGTTTTAAGAAGTACATATTTGAACATATAA [XGTACX_site8040]	8.46 ± 0.56
ACATGTCAAACATTTGCACACAAAAAAATAAAAATT [CACACA_site691]	8.52 ± 0.38
AAATAACACATATATACACACATATAACTATAATAT [CACACA_site7298]	8.62 ± 0.4
TATATATATATGTGCACACATATATAATATGTATAA [CACACA_site715]	9.96 ± 0.14
ATATATAAAATTATATGTACATATATAATATATATA [XGTACX_site529]	8.49 ± 0.085
TATATACAAAAATGCACACGAAAAGTAATATATATA [CACACA_site4173]	9.21 ± 0.21
TATATAAAAATCAATTGTACTTTTTTTTTTTTTTTT [XGTACX_site7327]	8.52 ± 0.16
TAGAACAAATAAAACACACACATATATATATATATG [CACACA_site2768]	8.62 ± 0.47
TTTAATATGTATTTTTTTTTTTTTTTTTTTTTTTTT [XGTACX_negctrl_site440]	9.06 ± 0.085
TATAACAGGAATTATATATATATATATATATATTAT [CACACA_negctrl_site911]	8.53 ± 0.092
CTTTTTTTAGTTAGGTGTACAATTTGTTATTATTAG [XGTACX_site1507]	8.85 ± 0.3
TTTTTTTTTTTTTTTTGTACATATTTCTTATAAGTG [XGTACX_site6459]	8.04 ± 0.32
TTTTTTTTTTTTTTTTTTTTTTGTGAAACTAAGTAA [CACACA_negctrl_site273]	7.96 ± 0.39
TTTTTTTTTTTTTTTTTGCAATATATTTTAAAAAAG [CACACA_negctrl_site25]	8.06 ± 0.48
GGAAGAATATATAGGACACACATACAATAATAAATA [CACACA_site6124]	8.89 ± 0.57
AACTTCTTTTTTATAACACACAAAATATAAATACAA [CACACA_site4313]	8.61 ± 0.4
TTTTATATCTAGTTTATATTTCTTAAATAAATAAAT [GTGCAC_negctrl_site245]	8.04 ± 0.33
TAATACAAAAAGAAAAGTACATGTTAATTATTATTT [XGTACX_site2196]	8.6 ± 0.2
CAAATTAAATATTATGCATGTACCAAACATCCTACC [TGCATGCA_site35]	8.91 ± 0.33
AACATATAAATGATATGTACACACATTTATATATAT [XGTACX_site7364]	8.73 ± 0.13
AGCACAGACTAATAAACACACACATATATATATATA [CACACA_site8021]	10 ± 0.34
ATATATATATATATATGTACATATTTATTTATTTAT [XGTACX_site5161]	10.1 ± 0.41
CTCATTCTTTTTTGATGTACTTTTTTTTTTTAAGTT [XGTACX_site2875]	8.79 ± 0.24

Sequence	gcPBM binding intensity (ln)
TTTTATGGAAAGTGTTGTACATATTTTTGTATATGT [XGTACX_site7356]	8.49 ± 0.19
TTCAATTAAAAAATATGTACGCATAAATTGATATAT [XGTACX_site4289]	8.71 ± 0.33
TTGTATAATTTAACAAGTACAAAATAAATTTGTATA [XGTACX_site5505]	8.19 ± 0.3
AAAAGAGAAACATTTACACACAAATATAGATATATG [CACACA_site1027]	8.49 ± 0.4
ATAGTATACGGACACACACACACACCGATATATATA [CACACA_site5032]	8.88 ± 0.45
TTTTATTAATATTATTTATCTTCTCAAAAGATATAT [XGTACX_negctrl_site202]	8.3 ± 0.4
TATCTTATATTTACACGTACGTAGAATTTATAAGTT [XGTACX_site3460]	8.57 ± 0.35
CACACGTATAAATATACACACTAAAATACACGCACA [CACACA_site7876]	8.71 ± 0.28
TATTTATAACATTGTACACACAAAGAAATAATATTA [CACACA_site7422]	8.53 ± 0.4
ACGTATGTATATTACACACATACATATTATTCACTA [CACACA_site204]	8.54 ± 0.47
ACATATATATACTATCGATTAATAAATTTGTTTTTT [CACACA_negctrl_site881]	8.82 ± 0.42
ATAATATTTTATATAGTGCATTTGCTCATTATATAT [GTGCAC_site9528]	9.02 ± 0.36
CATATATAACATATAACACACATACTTAGTATTACA [CACACA_site5674]	8.37 ± 0.46
ATGATAAACATGGATACACACATATATATTACATAT [CACACA_site1576]	8.55 ± 0.33
TGAGTATATATAAATACACACCAAATGTTAATATAT [CACACA_site5022]	8.31 ± 0.4
AGGTTAATCGAAATTGCATGTGACGAAAAATCAAAA [TGCATGCA_site666]	8.87 ± 0.29
CAAATACATGGACACACACACATATACAGATATATA [CACACA_site5854]	8.59 ± 0.45
CAAACATGTTCAAATTGTACAATAGAAAATATATAT [XGTACX_site1557]	8.91 ± 0.54
TTTTTTTTTTTTTTCTGTACTTAAAAAGGGGGAGAA [XGTACX_site3799]	8.96 ± 0.31
TTGAAGTTTGATTGTAGTACGAATTGGTAGTTTTTT [XGTACX_site6854]	8.37 ± 0.39
GATTATATATACAAAAGTACATTATAAAAATTTCAT [XGTACX_site4223]	8.29 ± 0.11
CCCTTAAAATATAAATGTACAAAATTATTTGTATGT [XGTACX_site6164]	8.7 ± 0.49
GTGAATATTAAAAAATGTACACAATTATATGTATAT [XGTACX_site4834]	8.49 ± 0.28

Sequence	gcPBM binding intensity (ln)
AGAAAAGAGAGAAAAACATGCACATGATATTATAAA [TGCATGCA_site120]	8.62 ± 0.53
TTCTTTTAATTACGAGTGCATACCATATGACATTAT [GTGCAC_site9819]	8.98 ± 0.3
ATAAACATCTAGTGCTGTACACAATTTGATTTTTTT [XGTACX_site3110]	8.47 ± 0.27
TATATATATATACATACATGCATATATATATATATA [TGCATGCA_site513]	10.2 ± 0.54
TGTTATCAGAAAGCACGTACATATAATTATATATTC [XGTACX_site4188]	8.85 ± 0.38
AATATATCTTATTTAACACACACAAAGAAAATAGAA [CACACA_site9242]	8.95 ± 0.34
AATACAATAAAAAAAAGTACACATGTATAAAAAATT [XGTACX_site8270]	8.94 ± 0.38
TAGAAAATCAGTTAAACACACACATAAAAAAAAAAA [CACACA_site8933]	8.65 ± 0.49
TATATAATATATATATGTACACATTTGCAAACAATG [XGTACX_site6941]	8.85 ± 0.21
TTCTTATTTGTACTAGTGCAATAGAAAATAAATAAA [GTGCAC_site9731]	8.71 ± 0.15
GAATATGTAAAGAAAGGTACACATGAAAATATGTGT [XGTACX_site446]	8.55 ± 0.42
ATGAATTAATCTAATCGTACAATAAGCATTATTATA [XGTACX_site2571]	8.32 ± 0.28
TGTACCTACAAAATATGATATATTTTTATAAATTGT [XGTACX_negctrl_site498]	8.3 ± 0.26
ACAATAAAGAACAGTATGCACTTTTATGCATGCGTA	9.32 ± 0.17
ATAGTTAAAAAAAAAAAAAAAAAAAAAAGAGAGAGA [CACACA_negctrl_site1307]	8.64 ± 0.64
AAATATACATACATATGTACATATATATATATATAT [XGTACX_site8202]	10.1 ± 0.45
CTTTTTCTTTTCCGGCGTACAGACTTAGTAGTAGAT [XGTACX_site2268]	8.81 ± 0.4
TATATAGCTAAAAACACACAAATATGTACACATAAA [CACACA_site7665]	8.71 ± 0.39
AATATTCAATATAAAGTGCATTATTGTGGACCTAAT	8.77 ± 0.099
ACTAATACATAAAAAAGTACAAATATGAGTATTAAC [XGTACX_site7281]	9.01 ± 0.29
